This passage reports binding results from PMC9966940.

Protein sequences, listed by entry. Tags and fused reporters are not part of them. Lines headed by an entry give the natural chain unless they say otherwise; changes in a name come on top.
UniProt P00441: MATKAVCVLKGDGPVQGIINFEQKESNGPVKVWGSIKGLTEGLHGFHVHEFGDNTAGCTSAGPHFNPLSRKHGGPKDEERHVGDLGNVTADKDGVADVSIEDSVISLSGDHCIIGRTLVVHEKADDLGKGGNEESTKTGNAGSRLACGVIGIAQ
UniProt P62258: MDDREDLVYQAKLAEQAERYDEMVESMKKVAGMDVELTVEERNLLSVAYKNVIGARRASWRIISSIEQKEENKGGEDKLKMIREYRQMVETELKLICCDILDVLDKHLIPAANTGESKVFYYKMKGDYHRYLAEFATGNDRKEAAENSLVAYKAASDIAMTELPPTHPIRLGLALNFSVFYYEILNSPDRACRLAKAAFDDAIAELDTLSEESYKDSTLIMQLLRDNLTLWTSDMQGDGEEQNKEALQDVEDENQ
UniProt P63104: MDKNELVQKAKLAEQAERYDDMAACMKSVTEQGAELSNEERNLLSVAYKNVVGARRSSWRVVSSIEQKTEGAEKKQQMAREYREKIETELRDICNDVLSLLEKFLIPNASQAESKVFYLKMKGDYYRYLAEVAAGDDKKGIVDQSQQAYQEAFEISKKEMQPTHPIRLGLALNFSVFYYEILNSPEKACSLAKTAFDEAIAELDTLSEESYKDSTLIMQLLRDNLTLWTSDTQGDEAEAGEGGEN

The target in experiment [1] is SOD1-His (not stated (human or mouse cDNA cloned)) (UniProt P00441). In words: pull-down; purified SOD1-His (100 μg) held by anti-SOD1 antibody on agarose beads G, purified YWHAZ-His (100 μg) added, 4 °C, 1 h, 20 mM Tris pH 8.0, 300 mM NaCl, 2 mM β-mercaptoethanol, 1 mM PMSF; eluates blotted with anti-His antibody; both purified.
Experiment [2] addresses GST-YWHAE (not stated (human or mouse cDNA cloned)) (UniProt P62258). Kind of experiment: pull-down; purified GST-YWHAE or GST-YWHAZ immobilised on glutathione sepharose 4B beads, purified SOD1-His (200 μg) at ratios 2:1, 1:1 and 1:2, 4 °C, 1 h, 20 mM Tris, 300 mM NaCl, 2 mM β-mercaptoethanol, 1 mM PMSF, pH 8.0; SDS-PAGE with Coomassie blue or Western blot; both purified.
Experiment [3] has as its target GST-YWHAZ (not stated (human or mouse cDNA cloned)) (UniProt P63104). The experiment is described as above.
Experiment [4] addresses T1, ATPG tagged with F2 at the C-terminus (negative control protein) (UniProt P36542).
T1 sequence: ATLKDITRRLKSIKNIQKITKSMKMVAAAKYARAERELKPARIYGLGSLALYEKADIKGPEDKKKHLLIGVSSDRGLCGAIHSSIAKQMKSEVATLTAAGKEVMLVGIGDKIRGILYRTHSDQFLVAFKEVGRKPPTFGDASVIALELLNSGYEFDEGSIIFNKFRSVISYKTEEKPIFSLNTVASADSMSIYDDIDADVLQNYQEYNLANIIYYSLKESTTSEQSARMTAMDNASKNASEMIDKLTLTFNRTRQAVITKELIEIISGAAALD
In words: split reporter; protein complementation assay (PCA) with YFP fragments F1 (SOD1, prey) and F2 (candidates, bait) in HEK293T cells, 100 ng of each vector, read 72 h after transfection at excitation 512 nm and emission 529 nm or by confocal imaging; fold change normalised to the vector controls in the same orientation; some cells treated with diquat, TBHP, NAC or ebselen (50 μM).

The target of experiment [5] is T2, ATPG tagged with F2 at the N-terminus (negative control protein) (UniProt P36542).
T2 sequence: T1 sequence
The experiment is described as above.

In experiment [6] the target is WT-SOD1-F1N (human copper-zinc superoxide dismutase 1 with YFP fragment F1 at the N-terminus) (human) (UniProt P00441). In words: co-IP; HepG2 cells transfected with WT-SOD1-F1N, SOD1-H46R-F1N, SOD1-G93A-F1N or F1N vector for 72 h; lysate (1 mg protein) precipitated with SOD1 antibody and Protein A magnetic beads; blots for SOD1, YWHAE and YWHAZ.

These are yes or no findings as the source states them, for the method shown. For part of these data: In cells and extracts the contact can be indirect. Some binding calls cover weakened binding; strength is not graded here. For part of these data: Tags and fused reporters may be left off the sequences shown.

Turning to YWHAZ-His (from UniProt P63104 1-245), the binding result in experiment [1] was “binds”. On to “SOD1-His (from UniProt P00441 1-154) (enzyme)”, for which the binding result in experiment [2] and in experiment [3] was “binds” in each case. For “WT-SOD1-F1N (human copper-zinc superoxide dismutase 1 with YFP fragment F1 at the N-terminus) (from UniProt P00441 1-154) (enzyme)”, the binding result in experiment [4] and in experiment [5] was “no binding” each time.

With “endogenous YWHAZ of HepG2 cells (from UniProt P63104 1-245)”, the binding result in experiment [6] is “binds”.

Turning to “endogenous YWHAE of HepG2 cells (from UniProt P62258 1-255)”, the binding result in experiment [6] was “binds”. As for “WT-SOD1-F1C (human copper-zinc superoxide dismutase 1 with YFP fragment F1 at the C-terminus) (from UniProt P00441 1-154) (enzyme)”, the binding entry in experiment [4] and in experiment [5] was “no binding” each time.
